# Test results reported in paper PMC4336329 (PLoS ONE, 2015).
# Out of some 310,000 compounds screened, about 14,000 (4.5%) showed an effect of 50% or more. The effect is printed as a negative number. Some of the results follow.
# Molecular target: human ether-à-go-go-related gene (hERG) potassium channel (human, UniProt Q12809)
# Test: primary screen, population patch clamp on CHO cells stably expressing hERG
# 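Further: peak tail current of the secondary pulse compared with the same well before compound.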
# Sequence of human ether-à-go-go-related gene (hERG) potassium channel (Q12809 whole entry, looked up): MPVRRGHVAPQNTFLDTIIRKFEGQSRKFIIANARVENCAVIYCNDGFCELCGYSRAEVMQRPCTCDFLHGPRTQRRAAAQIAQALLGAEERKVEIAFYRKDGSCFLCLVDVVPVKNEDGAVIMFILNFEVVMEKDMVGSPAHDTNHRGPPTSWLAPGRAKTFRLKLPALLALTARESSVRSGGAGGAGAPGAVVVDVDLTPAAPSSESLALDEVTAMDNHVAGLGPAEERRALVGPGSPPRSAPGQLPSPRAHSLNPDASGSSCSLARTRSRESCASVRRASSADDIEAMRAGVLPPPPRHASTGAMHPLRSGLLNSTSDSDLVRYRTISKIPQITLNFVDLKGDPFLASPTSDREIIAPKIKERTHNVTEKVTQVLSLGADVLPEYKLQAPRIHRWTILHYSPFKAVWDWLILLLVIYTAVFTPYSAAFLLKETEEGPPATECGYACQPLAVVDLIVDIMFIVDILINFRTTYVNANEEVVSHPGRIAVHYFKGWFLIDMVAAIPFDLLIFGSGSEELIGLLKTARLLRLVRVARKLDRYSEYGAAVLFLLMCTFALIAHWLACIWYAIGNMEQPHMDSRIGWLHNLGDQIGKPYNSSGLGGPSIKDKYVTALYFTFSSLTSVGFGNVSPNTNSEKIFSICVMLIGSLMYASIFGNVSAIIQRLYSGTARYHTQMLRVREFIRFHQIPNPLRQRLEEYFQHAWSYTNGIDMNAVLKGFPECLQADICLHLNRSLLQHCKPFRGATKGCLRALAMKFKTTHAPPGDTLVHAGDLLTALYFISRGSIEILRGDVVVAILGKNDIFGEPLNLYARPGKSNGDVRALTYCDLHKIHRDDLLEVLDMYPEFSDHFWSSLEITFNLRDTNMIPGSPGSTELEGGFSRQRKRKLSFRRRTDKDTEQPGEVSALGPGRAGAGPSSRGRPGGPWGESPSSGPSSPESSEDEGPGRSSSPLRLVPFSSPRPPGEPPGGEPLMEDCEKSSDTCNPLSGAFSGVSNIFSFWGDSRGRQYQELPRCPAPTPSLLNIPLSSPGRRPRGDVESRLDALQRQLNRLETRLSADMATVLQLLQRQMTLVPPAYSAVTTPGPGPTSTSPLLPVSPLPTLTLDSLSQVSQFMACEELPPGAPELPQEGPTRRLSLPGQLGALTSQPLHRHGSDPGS
row,SMILES,"hERG current change (%, negative = inhibition) at 10uM"
1,CC1CC1c1ccc(/C=C(\C#N)C(=O)Nc2cc(Cl)ccc2Cl)o1 (stereo not drawn),8.87%
2,CSc1cccc(NC(=O)C2CCCN(S(=O)(=O)c3cccs3)C2)c1 (stereo not drawn),3.76%
3,O=C(NCc1cccs1)C1CCCN1S(=O)(=O)c1ccccc1F (stereo not drawn),-4.65%
4,Cc1ccc(C)c2[nH]c(=O)c(CCNC(=O)c3ccco3)cc12,2.01%
5,Oc1ccccc1C=NC(c1ccccc1)C(O)c1ccccc1 (stereo not drawn),0.467%
6,CCn1cnc2sc(C(=O)Oc3cccc(C)c3)c(C)c2c1=O,19.9%
7,Cc1nc(C(F)(F)F)ccc1C(=O)N1CCCCC1,13.5%
8,CCOC(=O)c1cnn(-c2nc(-c3ccccc3F)cs2)c1C(F)(F)F,13.5%
9,Cc1cc(C)nc(-n2nc(C)c(Oc3ccccc3O)c2C)n1,-6.25%
10,CN(CCCC(=O)NCc1ccc2c(c1)OCO2)S(=O)(=O)c1ccc([N+](=O)[O-])cc1,-68.1%
11,COc1ccc(S(=O)(=O)N2CCN(Cc3cc(OC)c(OC)c(OC)c3)CC2)cc1.O=C(O)C(=O)O,15.5%
12,CCSc1nnc(-c2ccc(S(=O)(=O)N3CCOCC3)cc2)n1C,13.7%
13,I.OCCNC1=NCCN1,21.5%
14,Cc1ccccc1-c1nnn(Cc2ccc(F)cc2Cl)n1,10.6%
15,O=C(Cn1cc(/C=N/NC(=O)c2ccccc2Br)c2ccccc21)Nc1ccc(F)cc1,13.9%
16,Cc1ccc2c(c1)C(O)(CC(=O)/C=C/C=C/c1ccccc1)C(=O)N2 (stereo not drawn),4.35%
17,O=C(NCc1ccc(Cl)cc1)C1CC(O)CN1S(=O)(=O)c1ccc(Cl)cc1 (stereo not drawn),3.19%
18,CN(c1cnn(-c2ccccc2)c(=O)c1Cl)n1cccc1,-9.65%
19,COC(=O)c1cc(Br)ccc1NC(=O)Nc1ccccc1,-3.67%
20,O=C(Nc1cccc(S(=O)(=O)N2CCCCC2)c1)c1ccc2ccccc2n1,2.67%
21,O=C(CCNS(=O)(=O)c1ccc(Br)s1)NC1CCCC1,-15.1%
22,CCOc1ccc(CNC(=O)C2CCCN(S(=O)(=O)N3CC(C)CC(C)C3)C2)cc1OC (stereo not drawn),9.47%

row,SMILES,"hERG current change (%, negative = inhibition) at 10uM"
1,CCOC(=O)C1=C(C)NC(C)=C(C(=O)OCC)C1C(=O)OCC(=O)c1ccc2c(c1)OCCO2,-8.72%
2,CCn1cc([N+](=O)[O-])c(C(=O)Nc2c(C)nn(Cc3cccc(F)c3)c2C)n1,19.9%
3,CC(=O)OCC(=O)Nc1cc(S(=O)(=O)N2CCCCCC2)ccc1Cl,-2.16%
4,COCCCNC(=S)N1CCN(C(=O)c2ccco2)CC1,5.88%
5,Cc1ccc(NC(=O)CCN2CCC(Cc3ccccc3)CC2)cc1,-75.1%
6,COc1ccc(NC(=O)CN2CCCC(C)C2)c([N+](=O)[O-])c1 (stereo not drawn),-26.5%
7,COc1ccc(CN=Cc2c(O)[nH]c3ccccc23)cc1,13%
8,O=C1CC(N2CCN(c3nc4ccccc4s3)CC2)C(=O)N1c1ccc(F)cc1 (stereo not drawn),-53.5%
9,O=C(COC(=O)c1c[nH]c(=O)[nH]c1=O)Nc1ccccc1,17.8%
10,CC(C)(C)P(=O)(c1ccncc1)N1CCCC1 (stereo not drawn),2.14%
11,O=C(c1cc2nc(-c3ccco3)cc(C(F)(F)F)n2n1)N1CCCc2ccccc21,14.4%
12,CCC(C(=O)NCCCN1CC(C)CC(C)C1)n1nc(C)c2sc3ccccc3c2c1=O (stereo not drawn),-37%
13,COc1ccc(N2C(=O)C(Cc3ccccc3)NC2=S)cc1 (stereo not drawn),13.7%
14,CCOC(=O)CN1CC23C=CC(O2)C(C(=O)Nc2ccc(OC)cc2OC)C3C1=O (stereo not drawn),15.9%
15,Cc1c(NC(=O)/C=C/c2cccs2)c(=O)n(-c2ccccc2)n1C,-1.38%
16,COc1cc(N2C(=O)CC(=O)NC2=O)cc(OC)c1OC,17.1%
17,CCOC(=O)c1ccc(NC(=O)CSCCC(=O)O)cc1,16.4%
18,CCN(CC)CCC(c1ccc(N(C)C)cc1)c1c(O)cc(OC)cc1OC (stereo not drawn),-0.431%
19,O=C(NCc1ccc(F)cc1Cl)C1CCN(S(=O)(=O)N2CCC3(CC2)OCCO3)CC1,-13.9%
20,O=C(Cc1ccc2c(c1)CCCC2)Nc1ccccc1Br,8.48%
21,COC(=O)C1(CCSC)NC(c2ccc(O)c(OC)c2)C2C(=O)N(c3ccc(C)cc3)C(=O)C21 (stereo not drawn),0.388%
22,O=C(CCSCc1ccc(Cl)cc1)NCc1ccco1,-13.5%

row,SMILES,"hERG current change (%, negative = inhibition) at 10uM"
1,CC(C)=CC(=O)O[C@@H]1Cc2cc3ccc(=O)oc3cc2OC1(C)C,-16.5%
2,CCCC(C(=O)NCC1CCCO1)N(C(=O)CNS(=O)(=O)c1ccccc1)c1ccc(F)cc1 (stereo not drawn),2.7%
3,CCN(CC)CCCN(CC(=O)N(C)Cc1ccccc1)C(=O)c1ccc([N+](=O)[O-])cc1.Cl.O,3.8%
4,CCOC(=O)C1CCN(C(=O)COC(=O)c2nc3nc(C)cc(C)n3n2)CC1,2.52%
5,COc1ccc(S(=O)(=O)N2CCCCCC2)cc1C(=O)Nc1cccc(C)n1,11.9%
6,O=C(Nc1nc(-c2ccccc2)cs1)c1ccccc1F,20.2%
7,COc1ccccc1NC(=O)C(Sc1ccccc1)c1ccccc1 (stereo not drawn),-6.32%
8,C=CSc1sc(Cl)c(N(CC)CC)c1[N+](=O)[O-],13.4%
9,COc1ccc(-n2c(C)cc(C(=O)COC(=O)Cn3cnc4ccccc43)c2C)cc1,-0.741%
10,O=C(N/N=C/c1ccc2c(c1)OCO2)c1cccs1,11.2%
11,CN(C)C/C=C(/c1ccc(Br)cc1)c1cccnc1.Cl,-71.5%
12,CSc1nccc(-c2cc(Cl)sc2Cl)n1,6.21%
13,Cc1cccc(Oc2nc(-c3cccc([N+](=O)[O-])c3)nc3ccccc23)c1C,-17.9%
14,O=C(Nc1ccc2c(c1)OCO2)c1ccncc1,-0.833%
15,COc1ccc(N2CC(C(=O)Nc3cccc(S(=O)(=O)N4CCCC4)c3)CC2=O)c(OC)c1 (stereo not drawn),-1.26%
16,CC1(C(=O)NNC(=O)c2cccc([N+](=O)[O-])c2)CC1(Br)Br (stereo not drawn),-3.22%
17,CC(=O)c1ccc2c(c1)OCCOCCOCCOCCOCCO2,-62.4%
18,Cc1cccc(C(=O)NCC(=O)NCC(c2cccs2)N2CCOCC2)c1 (stereo not drawn),0.304%
19,CCOc1ccc(C(=O)Cc2cc3cccc(OC)c3oc2=O)cc1,21.1%
20,CCOc1ccc(CNC(=O)C2CCCN(S(C)(=O)=O)C2)cc1OC (stereo not drawn),-1.14%
21,COc1ccc(C2C(C(=O)Nc3cccc(C)n3)c3ccccc3C(=O)N2C)cc1 (stereo not drawn),2.31%
22,O=C(CSc1ncccc1C(=O)O)c1ccccc1,6.47%

row,SMILES,"hERG current change (%, negative = inhibition) at 10uM"
1,CCn1c(=O)cc(SCC(=O)NCCN2CCN(Cc3ccccc3)CC2)c2ccccc21,-49.4%
2,COc1ccc(-c2cn3cc(Br)cnc3n2)cc1,23%
3,N#C/C(=C/c1ccc(-c2ccc(Br)cc2)o1)C(=O)NC1CCCCC1,2.71%
4,CCOC(=O)Cc1csc(NC(=O)c2ccc(S(=O)(=O)N3CCCC3)cc2)n1,-20.2%
5,O=C(Cc1ccc([N+](=O)[O-])cc1)Nc1ccc2c(c1)CCC2,7.99%
6,CCOc1ccc(C(=O)O[C@H]2[C@H](Cc3ccccc3)NS(=O)(=O)[C@H]3C[C@@H]4C=C[C@]23O4)cc1,11.5%
7,COc1ccccc1Oc1ccc(S(=O)(=O)N2CCCCC2C)cc1 (stereo not drawn),-36.2%
8,O=C(CN1CCN(c2ccccc2O)CC1)Nc1cc([N+](=O)[O-])ccc1Cl,-17.3%
9,COc1ccc(C)cc1NC(=O)NC1CCCc2ccccc21 (stereo not drawn),8.57%
10,COc1cc(Nc2c3ccccc3nc3ccccc23)cc(OC)c1OC,-63.9%
11,Cc1cccc(NC(=O)C2CCN(S(=O)(=O)c3ccc4c(c3)NC(=O)CO4)CC2)c1,7.7%
12,Cc1ccc(S(=O)(=O)Nc2cccc(-n3cnnn3)c2)cc1,-1.73%
13,Cc1oc(-c2cccc(Cl)c2)nc1CN1CCC(C(=O)NCc2cccnc2)CC1,-60.9%
14,Cc1ccc(C(=O)N/C(=C\c2cccc([N+](=O)[O-])c2)C(=O)Nc2cccc(C(=O)O)c2)cc1,15.2%
15,COCC(C)NC(=O)c1ccccc1[N+](=O)[O-] (stereo not drawn),24.8%
16,CCOC(=O)c1ccc(S(=O)(=O)NNS(=O)(=O)c2ccc(C)cc2)cc1,20.2%
17,O=C(COC(=O)/C=C/c1cccc(C(F)(F)F)c1)NCc1ccco1,13.5%
18,CC1(C)Cc2c(cnn2-c2ccc(F)cc2)C(NC(=O)C2CCC2)C1 (stereo not drawn),-79.2%
19,O=C(Nc1ccc(Oc2cccnc2)cc1)C1CCN(Cc2cccc(Cl)c2)CC1,-52.8%
20,O=S(=O)(c1ccccc1)N1CCC2(CC1)OCCO2,22.6%
21,COC(=O)C1=C(N)Oc2cc(C)n(C)c(=O)c2C1c1ccc(Cl)cc1 (stereo not drawn),6.7%
